Out of some 120,000 compounds screened, about 5,300 (4.4%) were called active. Inconclusive means that the source gave no clear call. Such entries were picked first, then a sample of the others. Calls follow the shape of the dose curve; as a rule, active = well fitted inhibition curve with a large enough effect; inconclusive = small, poorly fitted or top-dose-only effect; inactive = no such curve, though single readings can be large or run the other way. Potencies of inconclusive entries are doubtful fits and often do not repeat.
Experiment: qHTS Primary assay for Inhibitors of Plasmodium falciparum Dd2 growth in vitro; also: nearly all actives have a fitted effect of over 65% in size
Conditions: P. falciparum Dd2 growth, SYBR Green, 72 h; series mostly up to 28.9 µM
In short: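 Infected erythrocytes (Dd2, 0.3% parasitemia, 2.5% hematocrit final) are added to compound in RPMI-1640/Albumax II medium, grown 72 h at 37C in low oxygen, then lysed with saponin/Triton-X containing SYBR Green and read by fluorescence.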
Potency is read from the fitted curve at half-maximal effect; tags tell the direction and shape of the fitted curve.

Row | Compound | Potency
1 | COCC(=O)N1c2nc(C(C)C)nn2C2(CCCCC2)[C@@H]2CCCC[C@@H]21 | inactive
2 | O=C(Nc1cccc(-c2nnc3n2CCCC3)c1)c1ccsc1 | inconclusive: 8.91 µM [inhibitor, partial curve, poor fit]
3 | O=C1CC(c2nc3ccccc3n2CCCOc2ccccc2)CN1c1ccc(F)cc1 (centres undefined) | inconclusive: 11.2 µM [inhibitor, partial curve]
4 | COCCn1c(=O)n([C@H]2CCCN(C(=O)c3cc(C)nn3C)C2)c2ncccc21 | inactive
5 | CCN(c1ccccc1)c1nnc(NC(=O)Nc2cccc(Br)c2)s1 | inconclusive: 8.91 µM [inhibitor, partial curve]
6 | Cc1cc2cc(-c3c(C)noc3C)nc(-c3cccc([S+](C)(=O)[O-])c3)c2o1 | inactive
7 | CC(C)=CCC1(CO)CCCN(c2ccnc(N)n2)C1 (centres undefined) | inconclusive: 7.94 µM [inhibitor, partial curve, poor fit]
8 | Cc1ccc(C(=O)N2CCC(N3CCCOC3=O)CC2)cc1 | inactive
9 | COc1ccc(-c2noc([C@@H]3C[C@@H](O)CN3Cc3ccccn3)n2)cc1 | inconclusive: 22.4 µM [inhibitor, single point]
10 | CN(CCNc1nc(CCN)nc2ccccc12)S(C)(=O)=O | inactive
11 | Cc1nc(N2CCCC2)c2c(C(=O)N3CCN(c4cccc(Cl)c4)CC3)c(C)oc2n1 | inconclusive: 17.8 µM [inhibitor, single point]
12 | C=Cc1ccc(CSc2nc(-c3ccccc3Cl)nc3c2Cc2c(CO)cnc(C)c2O3)cc1 | active: 6.31 µM
13 | Oc1ccccc1CN1CCNc2cc(Nc3ccccc3)ncc2C1 | active: 5.01 µM
14 | OCC1(CN2CCCC2)CCN(Cc2ccc(Cl)cc2)CC1 | inconclusive: 2.51 µM [inhibitor, full curve, poor fit]
15 | COc1ccc(-c2noc(-c3cccn3CC(=O)Nc3ccccc3C)n2)cc1F | inconclusive: 0.501 µM [inhibitor, full curve, poor fit]
16 | CCC1=C(C(=O)OC)C(c2ccccc2OC)N2C(CC(=O)N3CC(C)OC(C)C3)=CSC2=N1 (centres undefined) | inconclusive: 3.16 µM [inhibitor, single point]
17 | CN(C)c1ccc(C(=O)N[C@H]2CO[C@H]3[C@@H]2OC[C@@H]3n2cc(-c3ccccn3)nn2)cc1 | inactive
18 | Cc1ccc(-n2c(C3CCN(C(=O)c4ccc5cc[nH]c5c4)CC3)n[nH]c2=O)cc1 | inconclusive: 7.08 µM [inhibitor, partial curve, poor fit]
19 | CCN(CC)c1ccc(CNC(=O)c2cc3c(s2)CN(C(C)C)C3)cc1 | inconclusive: 20 µM [inhibitor, single point]

From PubChem BioAssay AID1347417 (National Center for Advancing Translational Sciences (NCATS), 2020)
